Source: paper PMC5796741
Changes are numbered by the printed parent chain. No constants are given. Whether binding was seen depends on the method and setting. In cells and extracts the contact can be indirect. Some binding calls cover weakened binding; strength is not graded here.

T1: mesencephalic astrocyte-derived neurotrophic factor (MANF) in ARPE-19 cells (human) (UniProt P55145)
T1 sequence: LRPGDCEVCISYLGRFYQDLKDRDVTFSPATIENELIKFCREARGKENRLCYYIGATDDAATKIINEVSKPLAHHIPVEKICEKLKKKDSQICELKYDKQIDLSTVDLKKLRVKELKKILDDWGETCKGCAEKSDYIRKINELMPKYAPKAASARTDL

T2: mesencephalic astrocyte-derived neurotrophic factor (MANF), expressed in HEK293 cells (human) (UniProt P55145)
T2 sequence: T1 sequence

B1: human bestrophin1 (Best1), wild type, in a stable ARPE-19 line (protein, UniProt O76090 1-585)
chain: MTITYTSQVANARLGSFSRLLLCWRGSIYKLLYGEFLIFLLCYYIIRFIYRLALTEEQQLMFEKLTLYCDSYIQLIPISFVLGFYVTLVVTRWWNQYENLPWPDRLMSLVSGFVEGKDEQGRLLRRTLIRYANLGNVLILRSVSTAVYKRFPSAQHLVQAGFMTPAEHKQLEKLSLPHNMFWVPWVWFANLSMKAWLGGRIRDPILLQSLLNEMNTLRTQCGHLYAYDWISIPLVYTQVVTVAVYSFFLTCLVGRQFLNPAKAYPGHELDLVVPVFTFLQFFFYVGWLKVAEQLINPFGEDDDDFETNWIVDRNLQVSLLAVDEMHQDLPRMEPDMYWNKPEPQPPYTAASAQFRRASFMGSTFNISLNKEEMEFQPNQEDEEDAHAGIIGRFLGLQSHDHHPPRANSRTKLLWPKRESLLHEGLPKNHKAAKQNVRGQEDNKAWKLKAVDAFKSAPLYQRPGYYSAPQTPLSPTPMFFPLEPSAPSKLHSVTGIDTKDKSLKTVSSGAKKSFELLSESDGALMEHPEVSQVRRKTVEFNLTDMPEIPENHLKEPLEQSPTNIHTTLKDHMDPYWALENRDEAHS
B2: Val86Met-mutated Best1, in a stable ARPE-19 line (protein, UniProt O76090 1-585)
chain: B1 chain with V86M
B3: Glu300Asp-mutated Best1, in a stable ARPE-19 line (protein, UniProt O76090 1-585)
chain: B1 chain with E300D
B4: Arg218Ser-mutated Best1, in a stable ARPE-19 line (protein, UniProt O76090 1-585)
chain: B1 chain with R218S
B5: human bestrophin1 (Best1), wild type, expressed in HEK293 cells (protein, UniProt O76090 1-585)
chain: B1 chain
B6: Val86Met-mutated Best1, expressed in HEK293 cells (protein, UniProt O76090 1-585)
chain: B1 chain with V86M
B7: Glu300Asp-mutated Best1, expressed in HEK293 cells (protein, UniProt O76090 1-585)
chain: B1 chain with E300D
B8: Arg218Ser-mutated Best1, expressed in HEK293 cells (protein, UniProt O76090 1-585)
chain: B1 chain with R218S

target: T1, mesencephalic astrocyte-derived neurotrophic factor (MANF) in ARPE-19 cells (human); assay: proximity ligation; Duolink proximity ligation assay (DPLA) kit; stable lines prepared from ARPE-19 expressing wt Best1 or mutated variants

**Q.** How did the binding turn out when B1 was run?
**A.** Its binding is “binds”.

**Q.** With B2 as the binder, how does the binding read?
**A.** Its binding is “binds weakly”.

**Q.** Which binding does the source give for B3 here?
**A.** The binding was “no binding”.

**Q.** With B4 as the binder, how does the binding read?
**A.** The binding was “no binding”.

target: T2, mesencephalic astrocyte-derived neurotrophic factor (MANF), expressed in HEK293 cells (human); assay: co-IP; lysates from HEK293 cells expressing Best1 and MANF; Best1 detected in the precipitated immunocomplexes

**Q.** Which binding does the source give for B5 here?
**A.** The binding was “binds”.

**Q.** For B6, which binding is on record?
**A.** Its binding is “binds weakly”.

**Q.** With B7 as the binder, how does the binding read?
**A.** The binding was “no binding”.

**Q.** B8 was tested. Which binding did it give?
**A.** The binding was “no binding”.
